A word on the Ki: it is the dissociation constant of the complex between target and ligand, obtained from inhibition or displacement.

This test deals with T1, hCRTH2 (Homo sapiens, UniProt Q9Y5Y4).
T1 sequence (Q9Y5Y4 1-395): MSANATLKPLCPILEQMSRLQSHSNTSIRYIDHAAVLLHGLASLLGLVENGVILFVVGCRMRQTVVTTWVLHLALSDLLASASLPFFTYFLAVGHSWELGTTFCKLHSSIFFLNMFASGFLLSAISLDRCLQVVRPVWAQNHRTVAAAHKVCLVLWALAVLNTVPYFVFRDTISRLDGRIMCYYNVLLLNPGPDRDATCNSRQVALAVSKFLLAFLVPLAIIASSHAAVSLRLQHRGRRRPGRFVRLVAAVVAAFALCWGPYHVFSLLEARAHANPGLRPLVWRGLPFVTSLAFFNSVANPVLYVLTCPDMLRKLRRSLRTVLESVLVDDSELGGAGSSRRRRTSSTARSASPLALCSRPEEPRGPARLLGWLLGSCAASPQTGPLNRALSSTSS
As to the kind of experiment: biochemical. The settings on record: Ki (nM), Table A; Radioligand Binding Assay A, [3H]PGD2, HEK-hCRTH2 membranes.
Consider `O=C(O)CCC(=O)N(C1CC1)C1c2ccccc2N(C(=O)c2ccc(OC(F)(F)F)cc2)C2CCCC21` (single isomer, unassigned) [17CJ, 4-[cyclopropyl[cis,cis-2,3,3a,4,9,9a-hexahydro-4-[4-(trifluoromethoxy)benzoyl]-1H-cyclopenta[b]quinolin-9-yl]amino]-4-oxobutanoic acid], for which the Ki is 201 to 7500 nM.

As to `O=C(O)CCC(=O)N(C1CCC1)C1c2ccc(Cl)cc2N(C(=O)c2ccc(OC(F)(F)F)cc2)C2CCCC21` (single isomer, unassigned) [17CK, 4-[[cis,cis-6-chloro-2,3,3a,4,9,9a-hexahydro-4-[4-(trifluoromethoxy)benzoyl]-1H-cyclopenta[b]quinolin-9-yl]cyclobutylamino]-4-oxobutanoic acid], the Ki lay within 1 to 5 nM.

Consider `O=C(O)CCC(=O)N(C1CCC1)C1c2ccc(Cl)cc2N(C(=O)c2cccc(OC(F)(F)F)c2)C2CCCC21` (single isomer, unassigned) [17CL, 4-[[cis,cis-6-chloro-2,3,3a,4,9,9a-hexahydro-4-[3-(trifluoromethoxy)benzoyl]-1H-cyclopenta[b]quinolin-9-yl]cyclobutylamino]-4-oxobutanoic acid], for which the Ki lay in the range of 5.1 to 20 nM.

As to `O=C(O)CCC(=O)N(C1CCC1)C1c2ccc(Cl)cc2N(C(=O)c2ccc(F)cc2)C2CCCC21` (single isomer, unassigned) [17CM, 4-[[cis,cis-6-chloro-4-(4-fluorobenzoyl)-2,3,3a,4,9,9a-hexahydro-1H-cyclopenta[b]quinolin-9-yl]cyclobutylamino]-4-oxobutanoic acid], the Ki was 5.1 to 20 nM.

Molecule `O=C(O)CCC(=O)N(C1CCC1)C1c2ccc(Cl)cc2N(C(=O)c2cccc(F)c2)C2CCCC21` (single isomer, unassigned) [17CN, 4-[[cis,cis-6-chloro-4-(3-fluorobenzoyl)-2,3,3a,4,9,9a-hexahydro-1H-cyclopenta[b]quinolin-9-yl]cyclobutylamino]-4-oxobutanoic acid] showed a Ki of 5.1 to 20 nM.

The molecule `O=C(O)CCC(=O)N(C1CCC1)[C@@H]1c2ccc(Cl)cc2N(C(=O)c2cc(F)cc(F)c2)[C@@H]2CCC[C@@H]21` (single isomer, unassigned) [17CP, 4-[[cis,cis-6-chloro-4-(3,5-difluorobenzoyl)-2,3,3a,4,9,9a-hexahydro-1H-cyclopenta[b]quinolin-9-yl]cyclobutylamino]-4-oxobutanoic acid] yielded a Ki of 5.1 to 20 nM.

Take `O=C(O)CCC(=O)N(C1CCC1)C1c2ccc(Cl)cc2N(C(=O)c2ccc3ccccc3c2)C2CCCC21` (single isomer, unassigned) [17CR, 4-[[cis,cis-6-chloro-2,3,3a,4,9,9a-hexahydro-4-(2-naphthalenylcarbonyl)-1H-cyclopenta[b]quinolin-9-yl]cyclobutylamino]-4-oxobutanoic acid]: the Ki lay within 1 to 5 nM.

`O=C(O)CCC(=O)N(C1CCC1)C1c2ccc(Cl)cc2N(C(=O)c2ccc(C(F)(F)F)cc2)C2CCCC21` (single isomer, unassigned) [17CS, 4-[[cis,cis-6-chloro-2,3,3a,4,9,9a-hexahydro-4-[4-(trifluoromethyl)benzoyl]-1H-cyclopenta[b]quinolin-9-yl]cyclobutylamino]-4-oxobutanoic acid] showed a Ki of 5.1 to 20 nM.

For `O=C(O)CCC(=O)N(C1CC1)C1c2ccc(Cl)cc2N(C(=O)c2cccc(OC(F)(F)F)c2)C2CCCC21` (single isomer, unassigned) [17CU, 4-[[cis,cis-6-chloro-2,3,3a,4,9,9a-hexahydro-4-[3-(trifluoromethoxy)benzoyl]-1H-cyclopenta[b]quinolin-9-yl]cyclopropylamino]-4-oxobutanoic acid], the Ki was in the range of 1 to 5 nM.

Molecule `O=C(O)CCC(=O)N(C1CC1)C1c2ccc(Cl)cc2N(C(=O)c2ccc(F)cc2)C2CCCC21` (single isomer, unassigned) [17CV, 4-[[cis,cis-6-chloro-4-(4-fluorobenzoyl)-2,3,3a,4,9,9a-hexahydro-1H-cyclopenta[b]quinolin-9-yl]cyclopropylamino]-4-oxobutanoic acid] showed a Ki of 1 to 5 nM.

The molecule `O=C(O)CCC(=O)N(C1CC1)C1c2ccc(Cl)cc2N(C(=O)c2cc(F)cc(F)c2)C2CCCC21` (single isomer, unassigned) [17CW, 4-[[cis,cis-6-chloro-4-(3,5-difluorobenzoyl)-2,3,3a,4,9,9a-hexahydro-1H-cyclopenta[b]quinolin-9-yl]cyclopropylamino]-4-oxobutanoic acid] returned a Ki of 5.1 to 20 nM.

On to `O=C(O)CCC(=O)N(C1CC1)C1c2ccc(Cl)cc2N(C(=O)C2CC2c2ccccc2)C2CCCC21` (single isomer, unassigned) [17CX, 4-[[cis,cis-6-chloro-2,3,3a,4,9,9a-hexahydro-4-[(trans-2-phenylcyclopropyl)carbonyl]-1H-cyclopenta[b]quinolin-9-yl]cyclopropylamino]-4-oxobutanoic acid], for which the Ki lay in the range of 1 to 5 nM.

For `O=C(O)CCC(=O)N(C1CCC1)[C@@H]1c2ccccc2N(C(=O)c2ccc(OC(F)(F)F)cc2)[C@@H]2CCC[C@@H]21` (single isomer, unassigned) [17CZ, 4-[cyclobutyl[cis,cis-2,3,3a,4,9,9a-hexahydro-4-[4-(trifluoromethoxy)benzoyl]-1H-cyclopenta[b]quinolin-9-yl]amino]-4-oxobutanoic acid], the Ki lay in the range of 5.1 to 20 nM.

For the molecule `O=C(O)CCC(=O)N(C1CCC1)C1c2ccc(Cl)cc2N(C(=O)c2ccc(F)c(F)c2)C2CCCC21` (single isomer, unassigned) [17Co, 4-[[cis,cis-6-chloro-4-(3,4-difluorobenzoyl)-2,3,3a,4,9,9a-hexahydro-1H-cyclopenta[b]quinolin-9-yl]cyclobutylamino]-4-oxobutanoic acid], the Ki is 5.1 to 20 nM.

For `O=C(O)CCC(=O)N(C1CCC1)[C@@H]1c2ccccc2N(C(=O)c2cccc(OC(F)(F)F)c2)[C@@H]2CCC[C@@H]21` (single isomer, unassigned) [17DA, 4-[cyclobutyl[cis,cis-2,3,3a,4,9,9a-hexahydro-4-[3-(trifluoromethoxy)benzoyl]-1H-cyclopenta[b]quinolin-9-yl]amino]-4-oxobutanoic acid], the Ki lay in the range of 20.1 to 200 nM.

As for `O=C(O)CCC(=O)N(C1CCC1)C1c2ccccc2N(C(=O)c2ccc(F)cc2)C2CCCC21` (single isomer, unassigned) [17DB, 4-[cyclobutyl[cis,cis-4-(4-fluorobenzoyl)-2,3,3a,4,9,9a-hexahydro-1H-cyclopenta[b]quinolin-9-yl]amino]-4-oxobutanoic acid], the Ki lay in the range of 20.1 to 200 nM.

On to `O=C(O)CCC(=O)N(C1CCC1)[C@@H]1c2ccccc2N(C(=O)c2cc(F)cc(F)c2)[C@@H]2CCC[C@@H]21` (single isomer, unassigned) [17DC, 4-[cyclobutyl[cis,cis-4-(3,5-difluorobenzoyl)-2,3,3a,4,9,9a-hexahydro-1H-cyclopenta[b]quinolin-9-yl]amino]-4-oxobutanoic acid], for which the Ki is 20.1 to 200 nM.

`O=C(O)CCC(=O)N(C1CCC1)C1c2ccccc2N(C(=O)C2CC2c2ccccc2)C2CCCC21` (single isomer, unassigned) [17DD, 4-[cyclobutyl[cis,cis-2,3,3a,4,9,9a-hexahydro-4-[(trans-2-phenylcyclopropyl)carbonyl]-1H-cyclopenta[b]quinolin-9-yl]amino]-4-oxobutanoic acid] showed a Ki of 20.1 to 200 nM.

As to `O=C(O)CCC(=O)N(C1CCC1)C1c2ccccc2N(C(=O)C2CC2c2ccccc2)C2CCCC21` (single isomer, unassigned) [17DE, 4-[cyclobutyl[cis,cis-2,3,3a,4,9,9a-hexahydro-4-[(trans-2-phenylcyclopropyl)carbonyl]-1H-cyclopenta[b]quinolin-9-yl]amino]-4-oxobutanoic acid], the Ki was 5.1 to 20 nM.

With `O=C(O)CCC(=O)N(C1CC1)[C@H]1c2cc(F)ccc2N(C(=O)c2cccc(OC(F)(F)F)c2)[C@H]2CCC[C@H]21` (single isomer, unassigned) [17DF], the Ki was 201 to 7500 nM.

Regarding `O=C(O)CCC(=O)N(C1CC1)[C@H]1c2cc(F)ccc2N(C(=O)c2cccc(F)c2)[C@H]2CCC[C@H]21` (single isomer, unassigned) [17DG], the Ki fell in the range of 201 to 7500 nM.

For the molecule `O=C(O)CCC(=O)N(C1CC1)C1c2ccccc2N(C(=O)Cc2ccc(OC(F)(F)F)cc2)C2CCCC21` (single isomer, unassigned) [17DH, 4-[cyclopropyl[cis,cis-2,3,3a,4,9,9a-hexahydro-4-[[4-(trifluoromethoxy)phenyl]acetyl]-1H-cyclopenta[b]quinolin-9-yl]amino]-4-oxobutanoic acid], the Ki was 5.1 to 20 nM.

As for `O=C(O)CCC(=O)N(C1CC1)[C@@H]1c2ccc(Cl)cc2N(C(=O)C2Cc3ccccc3C2)[C@@H]2CCC[C@@H]21` (single isomer, unassigned) [17DK, 4-[[cis,cis-6-chloro-4-[(2,3-dihydro-1H-inden-2-yl)carbonyl]-2,3,3a,4,9,9a-hexahydro-1H-cyclopenta[b]quinolin-9-yl]cyclopropylamino]-4-oxobutanoic acid], the Ki is 5.1 to 20 nM.

On to `O=C(O)CCC(=O)N(C1CC1)C1c2ccccc2N(C(=O)CCc2ccc(OC(F)(F)F)cc2)C2CCCC21` (single isomer, unassigned) [17Di, 4-[cyclopropyl[cis,cis-2,3,3a,4,9,9a-hexahydro-4-[1-oxo-3-[4-(trifluoromethoxy)phenyl]propyl]-1H-cyclopenta[b]quinolin-9-yl]amino]-4-oxobutanoic acid], for which the Ki was in the range of 20.1 to 200 nM.

The record behind these values is patent US8592383B2, “Cycloalkyl-fused tetrahydroquinolines as CRTH2 receptor modulators” (Merck Sharp & Dohme Corp., priority 2011, dated 2013).
